From the supplement of paper PMC10338343 come the findings set out here.

± gives the standard deviation. Whole data set: some 5,500 sequences, median “pre-steady-state target cleavage rate” near 0.1, cut for the highest 2% near 0.64. The entries are a selection whose mix differs from that of the whole data set.

The assay has as its system MIWI (PIWIL1) piRISC loaded with piRNA #2 (30 nt). Put plainly: pre-steady-state target cleavage rate (min^-1); MIWI and MILI are mouse PIWI proteins and EfPiwi is from a freshwater sponge; tags in brackets are library labels; higher = faster piRNA-guided slicing of the target. To be noted: guide: piRNA #2 5'p-UUAGGUAACCCAGUAGAUCCAGAGGAAUUC; auxiliary factor: 500 nM mouse GTSF1. Summed up: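 Three pooled Cleave-'n-Seq trials supplied the data, with k3 capped at 0.0001 min^-1. In each, […] transcribed, DNA-blocked target RNA library and 1 nM active affinity-purified piRISC with one synthetic guide reacted in HEPES–potassium acetate buffer at 33 °C for 0–8 or 0–960 min, with or without 500 nM GTSF1 partner protein. Uncleaved targets were sequenced and normalised to depth and to weakly complementary targets. A burst-and-steady-state fit provided the pre-steady-state cleavage rate.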
For the sequence CUUAUCGCUCUGGAUCUACUGGGUUACCUAA, the “pre-steady-state target cleavage rate” value was determined as 0.0755 ± 0.011.
For CUUAACCUCUGGAUUCUACUGGGUUACCUAA the value was 0.122 ± 0.021; for CUUAUCCUCUGGAUCUACUGCGUAACCUAA, 0.203 ± 0.047; for CUUAAGGAGUGGAUGUACUGGGUUUCCUAA, 0.00484 ± 0.0041.
Consider CUUAUGCUCUGGAUCUACUGGCUUACCUAA, for which the “pre-steady-state target cleavage rate” value was found to be 0.0508 ± 0.0081.
As to GAAUUCCUCUGGAUCUAUGGGUUACCUAA, the “pre-steady-state target cleavage rate” value stood at 0.0103 ± 0.0032.
The figure for CUUUUCCUCUGGAACUACAGGGUUACCUAA is 0.382 ± 0.033.
For CUUAUCCUCUGCAUCAACUGGGUUACCUAA the value was 0.322 ± 0.025.
The figure for CUUAUCCUGUGGAUCUACUGGGUAACCUAA is 0.133 ± 0.034; for GUAUUCCUCUCGAUCUACUGGGUUACCUAA it is 0.193 ± 0.044; for CUUAAGGAGUGGAUCUACAGCGUUACCUAA it is 0.00429 ± 0.0025.
In the case of CUUUUCCUCUCGAUCUACUGGCUUACCUAA, the “pre-steady-state target cleavage rate” value stood at 0.201 ± 0.016.
For the sequence CUUAAGCUCUGGAUCUACUGGCUUUCCUAA, the “pre-steady-state target cleavage rate” value came to 0.0162 ± 0.0083.
Regarding GAAUUCCUCUGGAACUACUGGGUAACCUAA, the “pre-steady-state target cleavage rate” value amounted to 0.234 ± 0.038.
Regarding CUUAAGCUCUGGUUCUACUGGGUUUCCUAA, the “pre-steady-state target cleavage rate” value was determined as 0.0607 ± 0.015.
The figure for CAAUUCCUCUGGAUGUACUGGGUUAGCUAA is 0.299 ± 0.038.
For GAAUUCCUCUGGAUCUACCGGGUUACCUAA the value was 0.096 ± 0.012; for “CAAUUCCUCUGGAUCUACUGGGUUACCUAG [g2:g29:cont:t1G]”, 0.539 ± 0.071; for CUUAUCCUCUGGAUCAACUGGGUAACCUAA, 0.117 ± 0.024.
For CUUAAGCAGAGGAUCUACUGGGUUACCUAA the value was 0.0315 ± 0.0087.
Take CUUAAGGACUGGAUCUACUGGGUUACAUAA: the “pre-steady-state target cleavage rate” value turned out to be 0.432 ± 0.083.
For CUAUUCCUCUGGAUCUACUCGGUUUCCUAA the value was 0.0443 ± 0.016.
As to GAAUUGCUCUGGAUCUACUCGGUUACCUAA, the “pre-steady-state target cleavage rate” value is 0.0184 ± 0.0089.
The figure for CUUAAGCUCUGGAUCUACUGGGAUUCCUAA is 0.0152 ± 0.0052; for CUUAUCCUCUGGAUGUACUGGCUUACCUAA it is 0.0994 ± 0.027.
Consider CUUUUCCUCUGGAUCUACUGGGUUACCCAA, for which the “pre-steady-state target cleavage rate” value is 0.234 ± 0.071.
The figure for CUUAAGGUCUGGAUGUACUGGGUUACCAAA is 0.0658 ± 0.038; for CUUAAGGUCUCCAUCUACUGGGUUACCUAA it is 0.00681 ± 0.0025.
As to CUAUUCCUCUGGUUCUACUGCGUUACCUAA, the “pre-steady-state target cleavage rate” value stood at 0.389 ± 0.036.
On to CUUAAGGAGUGGAUCUACUGGGUUACCUGA, for which the “pre-steady-state target cleavage rate” value turned out to be 0.0407 ± 0.012.
The figure for GAAUUCCUCAGGAUCUACUCGGUUACCUAA is 0.134 ± 0.02.
The figure for CUUAUCCUCUGGAAUCUACUGGGUUACCUAA is 0.337 ± 0.037; for CUUAAGGAGUUGGAUCUACUGGGUUACCUAA it is 0.133 ± 0.016.
The figure for CAAUUCCUCUGGAGUCUACUGGGUUACCUAA is 0.525 ± 0.048; for CAUAUCCUCUGGAUCUACUGGGUUACCUAA it is 0.528 ± 0.071; for CUUAUCCUCUGGAUCUACCGGGUUACCUAA it is 0.156 ± 0.018.
With CAAUUGCUCUGGAUCAACUGGGUUACCUAA, the “pre-steady-state target cleavage rate” value came out at 0.293 ± 0.036.
As to CUUAAGGUCUGGAUCUACUGGCUUACGUAA, the “pre-steady-state target cleavage rate” value was found to be 0.0447 ± 0.023.
Turning to CAAUUCCAGAGGAUCUACUGGGUUACCUAA, the “pre-steady-state target cleavage rate” value came to 0.215 ± 0.03.
Take “CUUAAGCUCUGGAUCUACUGGGUUAGGAUA [g6:g24:cont:t1A]”: the “pre-steady-state target cleavage rate” value is 0.0163 ± 0.011.
On to CUUAAGGAGACCUACUACUGGGUUACAUAA, for which the “pre-steady-state target cleavage rate” value is 0.0136 ± 0.0046.
For GAAUUCCACUGGAUCUACUGGGAUACCUAA the value was 0.343 ± 0.066.
As to CUUAACCUCUGGAGUCUACUGGGUUACCUAA, the “pre-steady-state target cleavage rate” value was determined as 0.22 ± 0.028.
For GUAUUCCUCUGGAUCUACUGGCUUACCUAA, the “pre-steady-state target cleavage rate” value is 0.0508 ± 0.014.
Consider GUAUUCCUCUGGAUCUACUGGGUUACCUUA, for which the “pre-steady-state target cleavage rate” value was determined as 0.0945 ± 0.041.
For CUUUUCCUCUGGAUCUACUGGCUUACCAAA, the “pre-steady-state target cleavage rate” value worked out at 0.08 ± 0.02.
Turning to CUUAACCUCUGGAUCUUCAGGGUUACCUAA, the “pre-steady-state target cleavage rate” value came to 0.112 ± 0.014.
For CAAUUCCUCUGGAUCUACUGCGAUACCUAA the value was 0.235 ± 0.045; for GAAUUCCUCUGGAUCUACUGCGUUACCUAA, 0.469 ± 0.056; for CAAUUCCUCUGGAUCUAGUGGGUUACCUUA, 0.138 ± 0.026.
The figure for CUUAAGGAGACGAUCUACAGCGUUACCUAA is 0.0051 ± 0.0033; for CUAUUCCUCUGCUUCUACUGGGUUACCUAA it is 0.516 ± 0.04; for CUUAUGCUCUGGAUCAACUGGGUUACCUAA it is 0.102 ± 0.011.
Take CUUAAGCUCUGGAACUACUGGGUAACCUAA: the “pre-steady-state target cleavage rate” value is 0.044 ± 0.011.
For GAAUUCCUCUGCAUCUAGUGGGUUACCUAA the value was 0.199 ± 0.02; for CUUAAGCUGUGGAUCUAGUGGGUUACCUAA, 0.0784 ± 0.017; for GAAUUCCUCUGCAUCUACUGGGUAACCUAA, 0.21 ± 0.032.
With CUUAACCUCAGGUUCUACUGGGUUACCUAA, the “pre-steady-state target cleavage rate” value was 0.448 ± 0.05.
The figure for CAAUUCCUCUCGAUCUACUGGCUUACCUAA is 0.203 ± 0.02; for CAAUUCCUCUGGAUCUACUGGUUUACCUAA it is 0.285 ± 0.032.
The figure for CUUUUCCUCUGGAUCUACUGGCUUAGCUAA is 0.00565 ± 0.004; for CUUAACCUCUGGAAUCUACUGGGUUACCUAA it is 0.281 ± 0.032.
Turning to CUUAAGGUCUGCAUCUACUGGGUUACGUAA, the “pre-steady-state target cleavage rate” value worked out at 0.279 ± 0.031.
For CUAUUCAUCUGGAUCUACUGGGUUACCUAA, the “pre-steady-state target cleavage rate” value worked out at 0.498 ± 0.047.
For CAAUUCCUGACGAUCUACUGGGUUACCUAA the value was 0.212 ± 0.034.
In the case of CUAUUCCUCUGGCUCUACUGGGUUACCUAA, the “pre-steady-state target cleavage rate” value was found to be 0.612 ± 0.042.
CUAUCCUCUGGAUCUACUGGGUUACCUAA: the “pre-steady-state target cleavage rate” value stood at 0.383 ± 0.059.
For CUUAUCGUCAGGAUCUACUGGGUUACCUAA, the “pre-steady-state target cleavage rate” value was 0.134 ± 0.035.
The figure for CUUAAGCUCAGGAUCUACUGGGUUACCAAA is 0.167 ± 0.028; for GAAUUCCUCUGGAUCAUACUGGGUUACCUAA it is 0.0105 ± 0.0044.
For CUUUUCCUCUGGAUGAACUGGGUUACCUAA the value was 0.28 ± 0.049; for CUAUUGGACUGGAUCUACUGGGUUACCUAA, 0.22 ± 0.081.
